Measured values taken from paper PMC4336329 (PLoS ONE, 2015).
The campaign covered roughly 310,000 compounds. About 14,000 (4.5%) showed an effect of 50% or more. Effects have a minus sign here. This is one part of the list.

target: human ether-à-go-go-related gene (hERG) potassium channel (human, UniProt Q12809); experiment: primary screen, population patch clamp on CHO cells stably expressing hERG
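Further: peak tail current of the secondary pulse compared with the same well before compound.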

Sequence of human ether-à-go-go-related gene (hERG) potassium channel (Q12809 whole entry, looked up): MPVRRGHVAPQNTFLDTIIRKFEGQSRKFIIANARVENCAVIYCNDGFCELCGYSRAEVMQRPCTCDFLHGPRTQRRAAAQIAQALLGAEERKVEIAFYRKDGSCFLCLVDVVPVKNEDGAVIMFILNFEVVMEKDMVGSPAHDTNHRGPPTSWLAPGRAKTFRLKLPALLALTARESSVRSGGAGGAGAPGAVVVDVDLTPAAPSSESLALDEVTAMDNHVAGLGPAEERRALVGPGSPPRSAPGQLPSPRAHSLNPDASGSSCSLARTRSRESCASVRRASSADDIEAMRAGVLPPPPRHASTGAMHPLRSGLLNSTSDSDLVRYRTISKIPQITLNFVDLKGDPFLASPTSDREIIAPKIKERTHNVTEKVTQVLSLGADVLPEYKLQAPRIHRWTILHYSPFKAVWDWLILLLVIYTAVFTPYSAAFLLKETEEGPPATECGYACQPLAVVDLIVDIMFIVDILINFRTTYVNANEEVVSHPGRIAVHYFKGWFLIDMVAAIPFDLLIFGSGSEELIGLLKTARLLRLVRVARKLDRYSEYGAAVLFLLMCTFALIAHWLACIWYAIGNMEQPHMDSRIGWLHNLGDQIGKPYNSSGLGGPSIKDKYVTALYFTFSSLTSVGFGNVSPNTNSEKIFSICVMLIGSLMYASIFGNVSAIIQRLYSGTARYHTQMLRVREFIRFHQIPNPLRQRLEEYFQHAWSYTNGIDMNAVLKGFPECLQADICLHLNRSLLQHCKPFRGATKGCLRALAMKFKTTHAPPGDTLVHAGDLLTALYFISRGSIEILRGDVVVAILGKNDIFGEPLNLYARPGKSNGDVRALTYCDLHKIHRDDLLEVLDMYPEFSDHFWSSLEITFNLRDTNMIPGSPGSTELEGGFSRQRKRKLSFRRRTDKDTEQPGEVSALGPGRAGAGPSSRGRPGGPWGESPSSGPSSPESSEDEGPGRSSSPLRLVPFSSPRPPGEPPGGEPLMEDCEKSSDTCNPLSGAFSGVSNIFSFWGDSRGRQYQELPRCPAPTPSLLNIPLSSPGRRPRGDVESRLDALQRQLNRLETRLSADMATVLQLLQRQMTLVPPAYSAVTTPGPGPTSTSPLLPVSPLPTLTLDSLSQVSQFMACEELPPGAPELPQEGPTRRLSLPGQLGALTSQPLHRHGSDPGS

| Compound | hERG current change (%, negative = inhibition) at 10uM |
| --- | --- |
| CCc1nn(CC(=O)NCCCN(CC)CC)c(=O)c2cc3sc(C)cc3n12 | 7.73% |
| COc1ccc(N(CC(=O)NC2CCCC2)S(=O)(=O)c2ccc(NC(C)=O)cc2)cc1 | -8.33% |
| O=C(Nc1ccc2c(c1)OCO2)N1CCN(c2ccccc2)CC1 | -9.85% |
| O=[N+]([O-])c1c(Nc2ccccc2O)cc(Cl)c2nonc12 | -19.2% |
| Cc1cccc(C(=O)NCC(=O)N2CC=C(c3ccccc3)CC2)c1 | -40.9% |
| CC(C)N1CCc2c(sc(NC(=O)C3CCCCC3)c2C(N)=O)C1.Cl | -21.7% |
| CCCCn1c(CN2CCN(c3cccc(Cl)c3)CC2)nc2c1c(=O)[nH]c(=O)n2C | 5.59% |
| O=C(NC(c1ccc(Cl)cc1)c1c(O)ccc2ccccc12)c1ccccc1 (stereo not shown) | 3.91% |
| CCN1CC2=C(OC(N)=C(C#N)C2c2cccs2)/C(=C/c2cccs2)C1 (stereo not shown) | -20.5% |
| O=C(NC(Cc1ccccc1)C(=O)O)/C(=C/c1ccccc1)NC(=O)c1ccccc1 (stereo not shown) | 12% |
| COc1ccc(NC(=O)C2CCN(c3cc(C)nc(-c4ccccc4)n3)CC2)cc1 | -31.5% |
| O=C(Nc1cccc(S(=O)(=O)N2CCOCC2)c1)c1cn(-c2ccccc2)nc1-c1ccc(F)cc1 | -3.59% |
| CC(/C=C\c1cccnc1)=C/C(=O)[O-].[Na+] | 7.39% |
| COC(=O)c1c(NC(=O)CSc2ncnc3[nH]ncc23)sc2c1CCC2 | 21.9% |
| CCN(C(=O)c1ccc(S(=O)(=O)N2CCC(C)CC2)cc1)C1CCS(=O)(=O)C1 (stereo not shown) | 7.87% |
| Cc1cc(C)nc(CC(N)=O)n1 | -4.7% |
| CCCN1CC(C)C(OC(C)=O)(c2ccccc2)CC1C.Cl (stereo not shown) | 0.16% |
| Cc1ccnc(NC(=O)c2cccc(OC(F)F)c2)n1 | 4.47% |
| O=C(c1cccnc1)c1cccnc1 | 9.11% |
| CCOC(=O)c1nnn(-c2nonc2N)c1CNC(C)C | -14.2% |
| O=C(c1cc(-c2ccc(Cl)cc2)on1)N1CCN(c2ccccc2)CC1 | 3.5% |
| CCOc1ccccc1NC(=O)C(CC)Sc1nc2ccsc2c(=O)n1CCC(=O)O (stereo not shown) | 15% |

| Compound | hERG current change (%, negative = inhibition) at 10uM |
| --- | --- |
| O=C(CCCOc1ccc(Cl)cc1Cl)NCCCO | -11.5% |
| COc1cc(CNCc2ccncc2)cc(OC)c1OC.Cl | 18.4% |
| CN(C)S(=O)(=O)N1CCN(S(=O)(=O)c2ccccc2)CC1 | 6.96% |
| CN(C(=O)C1CCN(S(=O)(=O)c2ccccc2)CC1)c1c(N)n(Cc2ccccc2)c(=O)[nH]c1=O | 20.8% |
| O=C(N1CCN=C1SCc1cccnc1)C12CC3CC(CC(C3)C1)C2 | -15.8% |
| CCCC(=O)Nc1ccc(NC(=O)c2ccco2)c(OC)c1 | 1.21% |
| O=C(NCCN1CCOCC1)c1cc2sccc2n1Cc1ccc(F)cc1 | -47% |
| CC(C)(C)c1ccc(C(CC(=O)O)NC(=O)CCCc2ccccc2)cc1 (stereo not shown) | 4.13% |
| Cc1ccccc1NS(=O)(=O)c1ccc(Cl)cc1 | -11.4% |
| O=S(=O)(c1ccccc1)N(CC(O)Cn1c2ccccc2c2ccccc21)c1ccccc1 (stereo not shown) | 14.9% |
| CC1CCCC(C)N1C(=O)c1cc(-c2cccs2)on1 (stereo not shown) | -16.3% |
| COc1ccc(OC)c(NC(=O)COC(=O)/C=C/c2c(C)nn(C3CCS(=O)(=O)C3)c2Cl)c1 (stereo not shown) | 1.74% |
| CC(=O)Nc1ccc(C(=O)OCc2ccc(F)cc2Cl)cc1 | 29.3% |
| COc1ccc(C(NC(=O)C(C)C)c2ccc3cccnc3c2O)cc1 (stereo not shown) | -9.24% |
| COc1ccc(N2CC(O)(c3ccc(F)cc3)[N+]3=C2CCCC3)cc1.[Br-] (stereo not shown) | -3.37% |
| CC(Sc1ccc(Cl)cc1)C(=O)NCc1ccc2c(c1)OCO2 (stereo not shown) | -20% |
| CCCC1C2C(=O)N(c3ccccc3OCC)C(=O)C2ON1c1ccccc1 (stereo not shown) | 7.62% |
| CC(C)(C)NC(=O)CN(C(=O)C(=O)Nc1ccc2c(c1)OCCO2)C1CCCC1 | 8.51% |
| COc1cc(OC)cc(C(C(=O)NC2CCCCC2)N(C(=O)c2ccno2)c2ccccc2)c1 (stereo not shown) | 9.79% |
| Oc1ccc2ccccc2c1CNc1ccccn1 | 23.6% |
| Cn1c(O)c(C=NC2CC3CCC2(C)C3(C)C)c(=O)[nH]c1=O (stereo not shown) | -11.9% |
| COCCNCC(=O)N1CCCCCC1.O=C(O)C(=O)O | -24.6% |

| Compound | hERG current change (%, negative = inhibition) at 10uM |
| --- | --- |
| Cc1ccc(CSc2nnc(-c3ccncc3)n2CC2CCCO2)cc1 (stereo not shown) | 0.73% |
| C/C(=N\NC(=O)c1nnn(-c2nonc2N)c1CN(C)c1ccccc1)c1cccc(O)c1 | 9.64% |
| O=C(COC(=O)c1ccc(Cl)c([N+](=O)[O-])c1)Nc1ccccc1OC(F)F | 16.9% |
| Cc1ccc(C)c(S(=O)(=O)N2CCCCC2CCNC(=O)C(=O)NCc2ccco2)c1 (stereo not shown) | -21.8% |
| CCn1c(SCC(=O)Nc2ccc(C(C)=O)cc2)nc2nc3c(cc2c1=O)COC(C)(C)C3 | 13.8% |
| CCOC(=O)c1csc(NC(=O)c2ccccc2)n1 | -8.86% |
| O=C(c1ccc(Cl)c(S(=O)(=O)N2CCCCCC2)c1)N1CCOCC1 | 5.32% |
| CCOC(=O)c1cc(C(C)C)sc1NC(=O)COC(=O)c1nccnc1N | -20.9% |
| COc1ccc(CCNC(=O)CCN2C(=O)COc3ccc(C)cc32)cc1OC | -17% |
| COCCN(C(=O)c1csnn1)C(C(=O)NC1CCCCC1)c1ccccc1 (stereo not shown) | 4.44% |
| COc1ccc(OC)c(C2c3[nH]c4ccccc4c3C[C@H]3C(=O)N(CCCOC(C)C)CC(=O)N23)c1 (stereo partly shown) | -39.7% |
| COc1ccc(NC2=CC(c3ccc(OC)cc3)N(c3ccc(OC)cc3)C2=O)cc1 (stereo not shown) | 25.2% |
| Cc1ccc(C)c(N2CCN(S(=O)(=O)c3ccc4c(c3)OCCO4)CC2)c1 | 3.7% |
| Cc1ccc(NC(=O)Cn2c(=O)c(C)nc3ccccc32)cc1 | 14.1% |
| CC1=C(C/C(C)=C/c2ccccc2)/C(=C/CO)[C@H](O)[C@](C)(O)C12CC2 | 11.3% |
| COc1ccc(NC(=O)CSc2ccc3nnc(CCNC(=O)c4ccccc4)n3n2)cc1OC | 6.74% |
| O=C(c1ccco1)N1CCN(C(=O)N2CCCCC2)CC1 | -25.1% |
| Cc1ccc(C(=O)COC(=O)CCC(=O)Nc2cc(Cl)ccc2Cl)cc1[N+](=O)[O-] | 9.06% |
| CNc1nc2c(C)cccn2c(=O)c1C=Nc1ccc(OC)cc1 | 11.8% |
| O=S(=O)(Nc1nc2ccccc2nc1NCC1CCCO1)c1ccccc1 (stereo not shown) | 2.43% |
| Cc1ccc(C(=O)NNC(=O)c2cc3cc4ccccc4nc3s2)cc1 | 1.36% |
| Cc1nnc(SCc2ccccc2Cl)n1CC1CCCO1 (stereo not shown) | -3.19% |

| Compound | hERG current change (%, negative = inhibition) at 10uM |
| --- | --- |
| Cc1ccc([N+](=O)[O-])cc1NC(=O)CSc1n[nH]c(-c2cccnc2)n1 | -18.9% |
| O=C(CN(Cc1ccc2c(c1)OCO2)C(=O)CNS(=O)(=O)c1ccccc1)NCc1ccco1 | -22% |
| CC(C)(C(=O)Nc1nccs1)c1ccccc1 | -5.84% |
| CCC(CC)Nc1ccc(C(CC(N)=O)NC(=O)c2ccccc2)cc1[N+](=O)[O-] (stereo not shown) | -4.38% |
| NC(=O)COC(=O)C12CC3CC(CC(O)(C3)C1)C2 | 5.8% |
| CCOC(=O)C1CCCN(c2oc(-c3ccc(F)cc3)nc2C#N)C1 (stereo not shown) | -43.9% |
| Cn1c(=O)c2c(ncn2CC(=O)OCC(=O)NC2CCCc3ccccc32)n(C)c1=O (stereo not shown) | 2.36% |
| CC(C)NC(=O)c1c(O)c2cccc3c2n(c1=O)CCC3 | 15.9% |
| COCCn1nnnc1C(c1ccc2ncccc2c1)N1CCN(c2ccccc2F)CC1 (stereo not shown) | -19.4% |
| CCOC(=O)C1CCN(C(=O)CCS(=O)(=O)c2ccc3c(c2)CCN3C(=O)CC)CC1 | 4.01% |
| c1ccc(Cn2nnc3c(N4CCN(Cc5ccc6c(c5)OCO6)CC4)ncnc32)cc1 | -12.4% |
| CCOc1cc2[nH]c(=S)n(CCc3ccc(OC)c(OC)c3)c(=O)c2cc1OCC | -4.53% |
| O=C(Nc1cccc([N+](=O)[O-])c1)C1CCN(C(=O)Cc2ccccc2)CC1 | -43.3% |
| O=C(/C=C/c1ccc([N+](=O)[O-])cc1)N1CCN(S(=O)(=O)c2cccs2)CC1 | -18.7% |
| O=C(CCN1C(=O)[C@@H]2Cc3ccccc3CN2C1=O)N[C@@H](C(=O)O)c1ccccc1 | 14.2% |
| O=C(Cc1ccc(F)cc1)Nc1nc(-c2ccc(F)cc2)cs1 | 32.8% |
| CC(=O)Nc1cccc(Oc2ccc3c(c2)C(=O)N(CCC(=O)O)C3=O)c1 | 9.5% |
| Cc1ccccc1C(=O)N1CCc2cc(-c3csc(NC(=O)CN4CCCC4)n3)ccc21 | 1.64% |
| O=C(NCCS(=O)(=O)N1CCN(c2ccccc2F)CC1)c1c(F)cccc1F | -13% |
